# Data published in the RNAGym collection of RNA variant scans (doi:10.7554/elife.90254).
# Read counts are not given, so values of variants with three or more changes are uncertain.
# B1: LINE1-mini (parent)
# chain: GGCAGAGCUCAACACAGCGUGGCAAAGUGGCUGUGGCUAGACUGCC
# Variants of: B1
# Test: self-cleavage, relative activity (ratio to wild type); higher = more cleavage; in vitro, sequencing; the parent is a self-cleaving ribozyme
row,Variant,self-cleavage
1,GGCUGAGCUCAACACAGUGUGGCAUAGUGGCUGUGGCUAGACUGCU,0.06
2,GGCUGAGCUCAACACAGUGUGGGAAAGUGGCUGUGGCUAGACUGCC,0.17
3,GGCUGAGCUCAACACAGUGUGGCAAAGUGGCUCUGGCUAGACUGCC,0.03
4,GGCUGAGCUCAACACAGUGUGGCAAAGUGGCAGUGUCUAGACUGCC,0.04
5,GGCUGAGCUCAACACAGUGUGGCAAAGUGGCAGUGGCUAUACUGCC,0.01
6,GGCUGAGCUCAACACAGCGUGGAAAGGUGGCUGUGACUAGACUUCC,0.03
7,GGCUGAGCUCAACACAGCGUGGAAAAGUGUCUGUGGCUUGACUGCC,0.16
8,GGCUGAGCUCAACACAGCGUGGGCAAGUGACCGUGGUUAGACUGCC,0.02
9,GGCUGAGCUCAACACAGCGUGGGGAAGUGGCUGUGGCUAGACUGCC,0.06
10,GGCUGAGCUCAACACAGCGUGGGAAAGUGCCUGUGGCUAGACUGCC,0.07
11,GGCUGAGCUCAACACAGCGUGGGAAAGUGGCUUUGUCUAGACUGCC,0.09
12,GGCUGAGCUCAACACAGCGUGGUAAAGUGGUAGUCGCUAGACUGCC,0.03
13,GGCUGAGCUCAACACAGCGUGGUAAAGUGGCUGUAGCUAGACUGCC,0.91
14,GGCUGAGCUCAACACAGCGUGGUAAAGUGGCUGUGGCUAUACUGCC,0.26
15,GGCUGAGCUCAACACAGCGUGGUAAAGUGGCUGUGGCUAGACUCCC,0.14
16,GGCUGAGCUCAACACAGCGUGGCAAAGUGGAUGUGGCUCGACAGCC,0.02
17,GGCUGAGCUCAACACAGCGUGGCAAAGUGGAUGUGGCUGGACAACC,0.01
18,GGCUGAGCUCAACACAGCGUGGCAAAGUGGGUGCGGCUAGACUGCC,0.03
19,GGCUGAGCUCAACACAGCGUGGCAAAGUGGCUGUGGAUAGACUGGC,0.03
20,GGCUGAGCUCAACACAGCGUGGCAAAGUGGCUGUGGCUAGAAUGUC,0.09
21,GGCUAAGCUCGACACAGCGUGGCAAAGUGGCUGUGGCUAGACUGCC,0
22,GGCUAAGCUCGACACAGCGUCGCAAAGUGGCUGUGGCUAGACUGCC,0.03
23,GGCUAAGAUCAACACAGCGUCGCAAAGUAGCUGUUGCUAGACUGCC,0.04

row,Variant,self-cleavage
1,GGCUAAGGUCAACACAGCGUGGCAAAGUGGCAGUGGCUAGACUGCC,0.07
2,GGCUAAGCUCAACACAGCGUGGCAAAGUGGCUGUGGAUAGACUGCC,0.02
3,GGCUAAGCUCAACACAGCGUGGCAAAGUGGCUGUGGCUAGAGUGCC,0.03
4,GGCUAAGCUCAACACAGCGUUGCAAAGUGGCUGUGGCUAGACUGCC,0.05
5,GGCUAAGCUCAACACAGCGUGGCAAAUUGGCUGUGGCUAGACUGCC,0.08
6,GGCUAAGCUCAACACAGCGUGGCAAAGUGCCUGUGGCUAUAUUGUC,0.03
7,GGCUAAGCACAACACAGCGUGGCUAAGUGGCGGUGGCUAGACUGCA,0.01
8,GGCUAAGCUCAACACAGCGUGGCAAAGUGGCUGAGGCUAGACUGCC,0.02
9,GGCUAAGCUCAACACAGCGUGGCAAAGUGGCUGGGGCUAGACUGCC,0.03
10,GGCUAAGCUCAACACAGCGUGGCAAAGUGGCUGUGGCAAGACUGCC,0.04
11,GGCUCAGCUAAACAAAGCGUGGCAAAGUGGCUGUCGAUAGACUGCC,0.01
12,GGCUCAACUCAGCACAGCGUGGCAAAGUGGCUGUGGCUAGACUGCC,0.28
13,GGCUCAGCUCAACACAGCCUGGCAAAGUGGCUGUGGCUAGACUGCC,0.01
14,GGCUCAGCUCAACACAGCGUUCCAAAGCCGCUGUGGCUAGACUGCC,0.03
15,GGCUCAGCUCAACACAGCGUGUCAAAGUGGCUGUGGCUAGACUGCC,0.06
16,GGCUCAGCUCAACACAGCGUGGCAAAGUGGCUUUGGCUAGCCUUCC,0.03
17,GGCUUUGCUCAACACAGCGUGGCACACUGGCUGUGGCUAGACUGCC,0.08
18,GGCUUAGCUCAGCACAGUAUGGCAAAGUGGCUGUGGCUAGACUGCC,0.07
19,GGCUUAGCUCAACACAGCGUGGCAAAGUGGCUGUGGCUUCACUACC,0.1
20,GGCUUAGAUCAACACAGCGUGGCAGAGUGGCUGUGGCUAGACUGCC,0.36
21,GGCUUAGGCCAACACAGCAUGGUAUAGUGGCUGUGGCUAGACUGCC,0.05
22,GGCUUAGCUAAACACAGCGUGGGAAAGUGACUGUGGCUAGACUGCC,0.01
23,GGCUUAGCUUAACACAGCGUGGCAACGUGGCUGUGGCUAGACUGCC,0.02

row,Variant,self-cleavage
1,GGCUUAGCUCAAUACAGCGUGGCAGAGUGGCUGUGGUUAGACUGCC,0.1
2,GGCUUAGCUCAACAGAGCGUGUCAAAGUGGCUGUGGCUAGACUGCC,0.03
3,GGCUUAGCUCAACACAGUGUGGCAAAGUGGCUGUGGCUAGACUGCC,0.12
4,GGCUUAGCUCAACACAGCGUGGCAAAGUGGCUGUGGUUAGACUGCC,0.05
5,GGCUUAGCUCAACACAGCGUGGCAAAGUGGCUGUGGCUAUACUGCC,0.11
6,GGCUUAGCGCAACACAUCGAGGCAAAGGGGCAGUGGCUAGACUGCC,0.02
7,GGCUUAGCUCAACACAGCGUGGCAAAGUGGCGGUGGCUAGAUUGCC,0.04
8,GGCUUAGCUCAACACAGCGUGGCAAAGUGGCUGUGGCUAGACCGCC,0.04
9,GGCUGAACUCAUCACAGCCUGCCGAAGUGGCUGUGGCUAGACUGCC,0.03
10,GGCUGAAUUCAACACAGCGUGGAAAACAUGCUGUGGCUAGACUGCC,0.04
11,GGCUGAACUCAACACAGCGUGGCAAAGUGGUUGUGGCUAGACUGCC,0.1
12,GGCUGAACUCAACACAGCUUGGCAAAGUGGCUGUGGCUGGACUGCC,0.04
13,GGCUGAACUCAACACAGCGUUGCAAAGUGGCUGUGGCUUGACGGCC,0.01
14,GGCUGAACUCAACACAGCGUGACAAAGUGGCUGUGGCUAGACUGCC,0.19
15,GGCUGAACUCAACACAGCGUGGCAAAGUGGCUGUGGCUAUAUUGCC,0.2
16,GGCUGAACCCAACAAAGCGUGGCAAAGUGGCUGUGGCUAGACAGCC,0.02
17,GGCUGAACUCAACACAGCGUGGCAAAGUGGCCGUGGCUAGACUGUC,0.18
18,GGCUGACCUCAACACGGCUUGGCACAGUGGCUGUGGCUAGUCUGCC,0.05
19,GGCUGACCUCAACACAGCGCGGCAAAGUGGCUGUGGCUAGACUGCC,0.02
20,GGCUGAUCUCAACACAGCGUGGCGAAGUGGCUGUGGCUAGCCUGCC,0.35
21,GGCUGAUAUCAACACAACGUGCCAAGGUGGCUGUGGCAAGACUGCC,0.1
22,GGCUGAUCUCAAGACAGCGUGGCAAAGUGGCUGUGGCUAGACAGCU,0.02
23,GGCUGAUCUCAACACAGAGUGGCAAAGUGGCUGUGGCUAGACUGCC,0.33

row,Variant,self-cleavage
1,GGCUGAUCUCAACACAGCGUCGCAAAAUGGCUGUGACUAGGCUGCC,0.03
2,GGCUGAUCUCAACACAGCGUGGCAAAGUGGCUUUGGCUAGACUGCC,0.15
3,GGCUGAGCUCAACACAAUGUGGCAAAGUGGCUGUGGCUAGACUGCC,0.13
4,GGCUGAGCUCAACACAAUGUGUCAAAGUGGCUGUGGCUAGACUGCC,0.04
5,GGCUGAGCUCAACACAACGUGGGAACGUGGCUGUGGCUAGACUCCC,0.03
6,GGCUGAGCUCAACACACCGUGUCAAAGUGGCUGUGGCUAGACUGCC,0.18
7,GGCUGAGCUCAACACACCGUGGCAAAGUGCCUGUGGCUAGACUGCC,0.06
8,GGCUGAGCUCAACACACCGAGGCAAAGUGGCUGUGGCUAGAGUGCC,0.01
9,GGCUGAGCUCAACACACCGUGGCAAAGUGGCUGAGGCUAGACUGCC,0.03
10,GGCUGAGCUCAACACAUCGUGGCAAAGUGGCUGUGGCUUGACUGCC,0.07
11,GGCUGAGCUCAACACAUCGUGGGAAAGUGGCUGUGGCUAGACUGCC,0.03
12,GGCUGAGCUCAACACAUCGUGGCAAAGUGGCUGUGGCUAGAAUGCC,0.07
13,GGCUGAGCUCAACACAUCGUGGCAAAGUGGCUGUGGCUAGACUGGC,0.11
14,GGCUGAGCUCAACACAUCGUGUCAAAGUGGCUGUGGGUAGACUGCC,0.03
15,GGCUGAGCUCAACACAUCGUGGCAAAGUGGCUGUGGCUAUACUGCC,0.32
16,GGCUGAGCUCAACACAGCAUGGCAAAGCGGCUGUGGCGAGACUGCC,0.07
17,GGCUGAGCUCAACACAGCCUGGCAAUGUGGCUGUGGCUAGUCUGCC,0.32
18,GGCUGAGCUCAACACAGCCUGGAAAAGUGGCCGUGGCUAGACUGCC,0.02
19,GGCUGAGCUCAACACAGCUUGGCAAAGUGGCUGUGGCUCGACUGCC,0.05
20,GGCUGAGCUCAACACAGCUUGGCAAAGUUGCUGUGGCUAGACUGCC,0.14
21,GGCUGAGCUCAACACAGCGUAGAAAAGUGGCUGUGGCUAGACUGCC,0.06
22,GGCUGAGCUCAACACAGCGUACCAUAGUGGCUGUGGCUAGUCUGCC,0.05
23,GGCUGAGCUCAACACAGCGUAGCAAAAGCGCUGUGGCUAGACAGCC,0.14

row,Variant,self-cleavage
1,GGCUGAGCUCAACACAGCGUAGCAAAGUGGCUGUGACUAGACUGCC,0.15
2,GGCUGAGCUCAACACAGCGUCGCAAAGUGGCUCUGGCUAGACUGCC,0.02
3,GGCUGAGCUCAACACAGCGUCGCAAAGUGGCUGUGUUUAGACUGCC,0.07
4,GGCUGAGCUCAACACAGCGUCGCAAAGAGGAUGUGGCUCGGCUGCC,0.04
5,GGCUGAGCUCAACACAGCGUUGCAAAGUGGCUGUGGCUAGACUUCC,0.13
6,GGCUGAGCUCAACACAGCGUUGCAAAGAGGCUGUGGCUAGACUGCC,0.05
7,GGCUGAGCUCAACACAGCGUUGCAAAGUGGCUGGGGCUAGAUUGCC,0.03
8,GGCUGAGCUCAACACAGCGUGACAAAGUGGCUGUGGCUUGACUGCC,0.05
9,GGCUGAGCUCAACACAGCGUGACAAAGUGGCUGUGGGUAGACUGAC,0.02
10,GGCUGAGCUCAACACAGCGUGACAAAGUGGCUGUGGCGAGACUGUC,0.17
11,GGCUGAGCUCAACACAGCGUGCCAAAGUUGCUGUGGCUAGACUGCC,0.03
12,GGCUGAGCUCAACACAGCGUGUCAAAGUGGCUGUGGCUAGUCUGCC,0.52
13,GGCUGAGCUCAACACAGCGUGGCAAAAUGGCUGUGGCUAGACUUCC,0.12
14,GGCUGAGCUCAACACAGCGUGGCAAACAGGAUGUGGAUAGACUGCC,0.02
15,GGCUGAGCUCAACACAGCGUGGCAAAGUAGCUGUGGCUAGACUGAC,0.09
16,GGCUGAGCUCAACACAGCGUGGCAAAGUAACUGUGCCUAGACUGCC,0.07
17,GGCUGAGCUCAACACAGCGUGGCAAAGUCGCUGUGGCUAGACUCCC,0.08
18,GGCUGAGCUCAACACAGCGUGGCAAAGUGUCUGUGGCUAGGCUGCC,0.03
19,GGCUGAGCUCAACACAGCGUGGCAAAGUGUAUGUGGCAAGACUGCC,0
20,GGCUGAGCUCAACACAGCGUGGCAAAGUGUCGGUGGCUAGACUGCC,0.05
